# Assay results from PubChem BioAssay AID1963576 (National Center for Advancing Translational Sciences (NCATS), 2024).
# Screen size: about 46,000 compounds; about 60 (0.1%) were called active. About 3% were inconclusive and are not listed. Calls come from the whole dose curve; as a rule, active = well fitted inhibition curve with a large enough effect; inconclusive = small, poorly fitted or top-dose-only effect; inactive = no such curve, though single readings can be large or run the other way. This is one part of the list.
# Experiment: Primary qHTS assay for Inhibitors of ovarian cancer metastasis using an organotypic tumor microenvironment (TME) model.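 For activity change, negative = inhibition: plate controls were DMSO wells for no effect and tomatine positive control wells for full effect.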 Note: nearly all actives have a fitted effect of over 65% in size.
# Conditions: SKOV3ip1-GFP adhesion/invasion on 3D omental model, fluorescence; series mostly up to 45.8 µM; activity change, negative = inhibition: at the top concentration
# How it was run: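 Adhesion/invasion was scored as fixed GFP-labeled SKOV3ip1 cell counts (488/509 nm), normalized to DMSO and tomatine controls. Cancer cells in serum-free medium, with four compound doses (0.36-46 umol/L), sat 2 hr at RT then 16 hr at 37 C on a 48 hr fibroblast/mesothelial/ECM culture.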
Compound,"activity change, negative = inhibition",outcome
Cc1cc(C)n(CC(=O)Nc2cc(F)ccc2F)c(=O)c1C#N,inactive: -7.13%,–
Cc1ccc(O)c(Nc2nc3ccccc3c3nncn23)c1,inactive: 1.93%,–
COc1cccc(C(=O)Nc2ccc3nc4n(c(=O)c3c2)CCCCC4)c1,inactive: 7.28%,–
Cc1ccc(C(=O)c2cn(CC(=O)NCc3ccccc3)c3nc(C)ccc3c2=O)cc1,inactive: 5.36%,–
COc1ccc(OC)c(NC(=O)N2CC(C)Oc3ccc(C)cc32)c1 (stereo not given),–,inactive
O=C1CN(C(=O)c2ccc(S(=O)(=O)N3CCCC3)cc2)C(c2ccccc2)c2cc(Cl)ccc2N1 (stereo not given),inactive: -6.59%,–
CCOc1ccc(C(=O)Nc2ccc3oc(-c4cccc5ccccc45)nc3c2)cc1,–,inactive
O=C(CN1CCN(Cc2ccc(F)cc2Cl)C1=O)NCCc1ccc(Cl)cc1,–,inactive
CC(C)c1nc2ccc(C(=O)NCCCN3CCN(c4ccccc4)CC3)cc2o1,inactive: 3.19%,–
CC1CNc2c(cccc2S(=O)(=O)N[C@@H](CCCN=C(N)N)C(=O)N2CC[C@@H](C)C[C@@H]2C(=O)O)C1 (stereo not given in full),inactive: 0.933%,–
CCOc1ccc(-c2nc(C(N)=O)c3c(n2)n(-c2ccc4c(c2)OCO4)c(=O)n3CC)cc1,inactive: 52.3%,–
COc1ccc(Cl)cc1NC(=O)CSc1nnc2[nH]c(=O)cc(C)n12,–,inactive
CCN(CC)c1ccc(NC(=O)Cn2c3ncccc3c(=O)n2-c2ccccc2)c(C)c1,inactive: 13%,–
Cc1ccc(C(=O)NCCC(C)C)cc1NC(=O)c1nsc2ccccc12,inactive: -22.9%,–
COc1cc2c(=O)c(C(=O)c3ccc(F)cc3)cn(Cc3cccc(F)c3)c2cc1OC,inactive: -1.06%,–
COc1ccccc1CNc1ncnc2c1c(-c1ccccc1)cn2-c1ccc(Br)cc1,–,inactive
Cc1ccc(CNC(=O)Cn2cc3c(n2)-c2c(oc(C(=O)N4CCOCC4)c2C)CC3)cc1,inactive: 11.1%,–
Cc1cc(C)c2oc(C(=O)Nc3c(C(=O)c4ccccc4)oc4ccccc34)cc(=O)c2c1,inactive: 17.2%,–
O=S(=O)(NCC(c1ccco1)N1CCOCC1)c1ccc(F)cc1 (stereo not given),inactive: -2.19%,–
COC(=O)c1cc(S(=O)(=O)N2CCN(c3cc(Cl)ccc3C)CC2)c[nH]1,–,inactive
CC1=C(C(N)=O)C(c2ccccc2F)n2nc(-c3ccc(Cl)cc3)nc2N1 (stereo not given),inactive: -5.96%,–
CC1CCN(c2csc3ccc(F)cc3c2=O)CC1,inactive: 7.39%,–
Cc1ccccc1S(=O)(=O)Cc1ccc(C(=O)NCCc2ccccc2)o1,inactive: 8.78%,–
Cc1ccc2c(c1)-c1c(cnn1CC(=O)N1CCN(c3cc(C)ccc3C)CC1)CO2,–,inactive

Compound,"activity change, negative = inhibition",outcome
Cc1ccccc1CNC(=O)C(=O)NCC(c1ccc2c(c1)OCO2)N1CCOCC1 (stereo not given),inactive: -11.1%,–
CN(CCCNC(=O)Cn1ncc2c([nH]c3ccccc32)c1=O)Cc1ccccc1,inactive: -7%,–
COCCc1nn2c(=O)cc(COC(=O)c3ccco3)nc2s1,–,inactive
O=C(NCc1ccc(Cl)cc1)c1ccc(CNS(=O)(=O)c2ccc(F)cc2)cc1,inactive: -7.77%,–
Cc1cc(N2CCN(c3ccccc3)CC2)n2cnnc2n1,inactive: -15.7%,–
COc1ccc(CCNC(=O)c2ccc(Cn3c(=O)c4ccccc4n(Cc4ccc(F)cc4Cl)c3=O)cc2)cc1OC,–,inactive
CC(C)(C)c1ccc(C(=O)Nc2ccc(OCc3cc(=O)n4ccsc4n3)cc2)cc1,–,inactive
CC(=O)c1ccc(NC(=O)c2cc(S(=O)(=O)N3CCOCC3)ccc2C)cc1,inactive: 0.841%,–
CCC(Sc1nc2cc(OC)c(OC)cc2c(=O)n1Cc1ccc(OC)cc1)C(=O)NCCOC (stereo not given),inactive: 0.563%,–
Cc1cc(C)cc(OCC(=O)N(Cc2ccc(Cl)cc2)C2CCS(=O)(=O)C2)c1 (stereo not given),inactive: 0.159%,–
COc1ccccc1CNC(=O)C1CCN(C2=NS(=O)(=O)C(c3ccc(C)c(C)c3)=C2C)CC1,inactive: 2.12%,–
CC(C)Cc1nn2c(=O)cc(COC(=O)c3cccc(NS(C)(=O)=O)c3)nc2s1,inactive: 7.93%,–
Cc1nc(N2CCOCC2)c2c(C(=O)N(C)c3ccccc3)c(C)oc2n1,inactive: 1.12%,–
CCOc1ccc(-c2cn3c(n2)sc2cc(C(=O)N4CCCC(C)C4)ccc23)cc1 (stereo not given),inactive: 19.7%,–
CCN1CCN(C(=O)c2ccc3c(c2)N(Cc2ccccc2)C(=O)c2ccccc2S3(=O)=O)CC1,–,inactive
Cc1nc(-c2ccc(F)cc2)sc1CCNC(=O)c1ccc(OC(C)C)cc1,inactive: -1.97%,–
COc1ccc(CNC(=O)CCCN2C(=O)CCn3nc(-c4cn(C)c5ccccc45)cc32)cc1,inactive: 4.28%,–
COc1cc(CSc2ncc(CO)n2Cc2ccc(C)cc2)cc(OC)c1,–,inactive
Cc1ccc(-n2c(=O)c3cccnc3n2CC(=O)Nc2ccc(C)cc2Cl)cc1,inactive: 6.25%,–
O=C(NCCc1ccc(Cl)cc1)C1(c2cccs2)CCOCC1,inactive: 3.45%,–
COc1ccc(OC)c(NC(=O)Cn2ncc3c2-c2ccccc2OC3)c1,inactive: 1.68%,–
O=C(NCCC1=CCCCC1)C1CCN(C(=O)N2CCOc3ccccc32)CC1,–,inactive
Cc1c(Cl)cccc1NC(=O)CSc1nc(=O)[nH]c2c1CCCC2,inactive: -4.04%,–
O=C(NCCc1ccccc1)c1ccc(CSc2nc3cccnc3n2Cc2ccccc2F)cc1,inactive: 3.87%,–

Compound,"activity change, negative = inhibition",outcome
Cc1cccc(-c2nc(CS(=O)CC(=O)NCc3ccc(Cl)cc3)c(C)o2)c1 (stereo not given),inactive: 3.87%,–
O=C1CN(C(=O)c2ccc(S(=O)(=O)N3CCCCC3)cc2)C(c2ccc(F)cc2)c2cc(Cl)ccc2N1 (stereo not given),inactive: 10.9%,–
COc1ccc(-c2[nH]ncc2C(=O)NCc2cccc(Cl)c2)cc1,inactive: 9.61%,–
O=C(NCC(c1cccnc1)N1CCOCC1)C(=O)Nc1ccc(Cl)cc1 (stereo not given),inactive: 2.04%,–
Cc1ccc2nc(-c3cccc(NC(=O)c4cccc5c(Cl)cccc45)c3)oc2c1,inactive: -0.634%,–
CCOC(=O)c1c(C)oc2nc(C)nc(NCC3CCN(Cc4ccccc4C)CC3)c12,inactive: 8.17%,–
CCOC(=O)c1cc(-c2ccccc2)n(CC(=O)NCc2ccc(C)cc2)c1C,inactive: -9.91%,–
COc1cccc(-c2cn3c(n2)sc2cc(C(=O)NCc4ccccc4F)ccc23)c1,inactive: 24.1%,–
Cc1oc2ccc(O)c(CN3CCN(C)CC3)c2c1C(=O)Nc1ccc(C(C)C)cc1,inactive: -12.6%,–
Cc1ccc(-c2cc(C(=O)N3CCN(S(=O)(=O)c4ccc(Br)s4)CC3)[nH]n2)cc1C,inactive: -25.8%,–
Cc1cccc(N2C(=O)C(CC(=O)Nc3ccc(F)cc3)N(C3CCCC3)C2=O)c1 (stereo not given),inactive: -2.05%,–
Cc1ccc(S(=O)(=O)n2nc(-c3ccccc3)nc2NCc2ccccc2Cl)cc1,inactive: 3.53%,–
CCc1ccc(NC(=O)Cn2c(=O)n(Cc3ccc4c(c3)OCO4)c(=O)c3oc4ccccc4c32)cc1,inactive: 7.66%,–
Cc1ccc(C)c(NC(=O)Cn2c(=O)n(Cc3nc(C)no3)c(=O)c3cc4c(cc32)OCO4)c1,inactive: -10.5%,–
Cc1cc(C)n2nc(NCc3ccccc3Cl)nc2n1,inactive: 2.22%,–
COc1ccc(CNc2nc(-c3ccco3)nn2S(=O)(=O)c2ccc3ccccc3c2)cc1OC,inactive: -0.643%,–
COC(=O)c1cc2occc2n1Cc1nc(-c2ccccc2C)oc1C,inactive: 2.69%,–
COc1cc(C(=O)NCc2nnnn2-c2ccc(C)c(C)c2)cc(OC)c1OC,inactive: 7.31%,–
CCOc1ccccc1CN1C(=O)c2ccccc2C1C(=O)NC1CCCCCC1 (stereo not given),–,inactive
COc1ccc(OCCn2cc(C(=O)c3ccco3)c3ccccc32)cc1,inactive: -27.7%,–
CCC(=O)N1CCc2cc(S(=O)(=O)NC(Cc3ccccc3)C(=O)NCc3ccc(C)cc3)ccc21 (stereo not given),inactive: -14.2%,–
Cc1cc2oc(C(=O)NCCc3ccc(S(N)(=O)=O)cc3)cc(=O)c2cc1C,–,inactive
CC(=O)Nc1ccc(NC(=O)CSc2cn(CC(=O)N(C(C)C)C(C)C)c3ccccc23)cc1,inactive: 1.83%,–
Cc1ccc(-c2noc(CN(C3CCCCC3)S(=O)(=O)c3ccc(F)cc3)n2)cc1,inactive: -0.543%,–

Compound,"activity change, negative = inhibition",outcome
CC(=O)N1c2ccc(S(=O)(=O)N3CCN(c4cc(Cl)ccc4C)CC3)cc2CC1C (stereo not given),inactive: 4.2%,–
O=c1c(-c2cc(-c3ccc(F)cc3)nc3c2COc2ccc(Cl)cc2-3)coc2ccc(F)cc12,inactive: 1.75%,–
Cc1ccccc1COC(=O)c1ccc(-c2nnn(Cc3ccccc3F)n2)cc1,inactive: 2.07%,–
CCN1CCN(C(=O)c2ccc3c(c2)N(Cc2c(F)cccc2Cl)C(=O)c2ccccc2S3)CC1,inactive: -20.4%,–
CCC(C)Sc1nc2c([nH]c3ccccc32)c(=O)n1C (stereo not given),inactive: 11.7%,–
CC(C)c1ccc(NC(=O)CSC2=Nc3ccccc3C3=NC(CCC(=O)NCc4ccc(F)cc4)C(=O)N23)cc1 (stereo not given),inactive: 2.32%,–
COc1ccc(-c2nc(C)c(CCNC(=O)c3ccco3)s2)cc1,–,inactive
COc1cc2c(cc1OC)C(COc1cc(C)cc(C)c1)N(C(=O)c1ccc(S(=O)(=O)N3CCCC3)cc1)CC2 (stereo not given),inactive: 7.29%,–
O=C(CSc1nc2c([nH]c3ccccc32)c(=O)n1-c1cccc(Cl)c1)NCc1ccccc1,–,inactive
COC(=O)c1ccc(CNC(=O)c2nc(Cn3nc(C)c(Br)c3C)no2)cc1,inactive: 10.5%,–
O=C(CCCCCn1c(=O)[nH]c2ccccc2c1=O)N1CCN(c2ccc(Cl)cc2)CC1,–,inactive
CCOC(=O)C1CCCN(C(=O)Cn2ncc3c4ccccc4n(Cc4ccc(F)cc4)c3c2=O)C1 (stereo not given),inactive: 0.656%,–
O=C(COc1ccccc1)Nc1sc2c(c1C(=O)Nc1ccccc1)CCCCC2,inactive: -0.0817%,–
Cc1ccc(C)c(-c2ccc(=O)n(Cc3ccc(F)cc3Cl)n2)c1,inactive: 8.2%,–
CCc1nc2ccc(C(=O)N3CCN(c4cccc(OC)c4)CC3)cc2nc1CC,inactive: 9.65%,–
CCc1nnc(NC(=O)CSc2nc3c([nH]c4ccccc43)c(=O)n2-c2ccc(C)cc2)s1,inactive: 2.03%,–
CN(Cc1ccccc1)C(=O)Cn1c(=O)c2cccn2c2ccc(F)cc21,–,inactive
Cc1ccc2[nH]c(CSc3nnc(NC(=O)COc4ccccc4Cl)s3)cc(=O)c2c1,inactive: 3.88%,–
CCN(CC)c1ccc(C(=O)Nc2ccc3nc(N(CC)CC)cc(C)c3c2)cc1,inactive: -9.34%,–
CCOC(=O)CNC(=O)CC(c1cc(OC)c(OC)c(OC)c1)N1Cc2ccccc2C1=O (stereo not given),–,inactive
CCOC(=O)c1ccc(NC(=O)CCn2c(=O)oc3ccccc32)cc1,–,inactive
Cc1ccccc1NC(=O)C1CCN(S(=O)(=O)c2ccccc2)CC1,inactive: 22.5%,–
O=S(=O)(NCC(c1ccco1)N1CCOCC1)c1ccc(Cl)cc1 (stereo not given),inactive: -3.34%,–
